# Measured values published in PubChem BioAssay AID1030 (National Center for Advancing Translational Sciences (NCATS), 2008).
# Out of some 220,000 compounds screened, about 16,000 (7.3%) were called active. This list was built around the results that the source calls inconclusive (neither active nor inactive); the mix of calls is not that of the screen. Calls come from the whole dose curve; as a rule, active = well fitted inhibition curve with a large enough effect (not every such curve was filed as active); inconclusive = small, poorly fitted or top-dose-only effect, or another doubt; inactive = no such curve, though single readings can be large or run the other way. Potencies of inconclusive entries are left out as doubtful fits.
# Molecular target: Aldehyde dehydrogenase 1A1 (Homo sapiens) (UniProt P00352)
# Chain of UniProt P00352 (P00352 whole entry, looked up): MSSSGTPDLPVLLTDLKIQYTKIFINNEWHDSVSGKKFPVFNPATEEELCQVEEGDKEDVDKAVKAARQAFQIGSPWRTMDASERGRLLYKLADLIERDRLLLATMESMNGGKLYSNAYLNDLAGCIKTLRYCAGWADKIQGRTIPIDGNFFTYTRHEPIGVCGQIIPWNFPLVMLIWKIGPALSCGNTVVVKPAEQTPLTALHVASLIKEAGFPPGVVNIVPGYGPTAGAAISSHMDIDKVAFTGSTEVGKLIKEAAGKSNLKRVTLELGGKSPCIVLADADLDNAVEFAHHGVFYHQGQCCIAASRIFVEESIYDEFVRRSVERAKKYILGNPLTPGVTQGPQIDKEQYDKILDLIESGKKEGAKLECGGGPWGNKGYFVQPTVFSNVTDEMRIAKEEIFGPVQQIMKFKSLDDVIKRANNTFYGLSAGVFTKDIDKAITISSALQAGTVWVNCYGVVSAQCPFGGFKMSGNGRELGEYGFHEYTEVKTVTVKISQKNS
# Experiment: qHTS Assay for Inhibitors of Aldehyde Dehydrogenase 1 (ALDH1A1);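 for activity, negative = inhibition: plate controls were no enzyme wells and a reference inhibitor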
# Details: Purified ALDH1A1, NADH fluorescence, propionaldehyde substrate; series mostly up to 75.3 µM; activity, negative = inhibition: at the top concentration
# Potency is the fitted concentration of half-maximal effect; tags give direction and shape of the fitted curve.
Structure (SMILES),Potency,"activity, negative = inhibition"
Cc1cccc(OCCN2CSC(=S)N(C)C2)c1,"inconclusive [inhibitor, single point]",–
Cc1nn2c(N)c(C#N)cnc2c1-c1ccc(Cl)cc1,"inconclusive [inhibitor, partial curve]",–
CC1CCCCN1S(=O)(=O)c1ccc(NC(=O)c2cccc(-n3cnnn3)c2)cc1 (stereo not drawn),active: 25.1 µM,–
COc1ccc(OC)c(C(=O)CSc2nnc(-c3cccs3)n2C)c1,"inconclusive [inhibitor, single point]",–
Cc1ccc(NS(=O)(=O)c2cc(NC(=O)c3ccc4c(c3)NC(=O)CS4)ccc2C)c(C)c1,active: 14.1 µM,–
CC/C(=C(/CC)c1ccc(O)cc1)c1ccc(O)cc1,inactive,–
COc1ccc2nc3sc(C(=O)NCc4cccs4)c(N)c3cc2c1,active: 3.98 µM,–
CCOC(=O)c1sc(NC(=O)/C=C/c2ccccc2)nc1C,"inconclusive [inhibitor, partial curve]",–
CCC1CCc2c(sc(NC(=O)c3ccoc3C)c2C(N)=O)C1 (stereo not drawn),"inconclusive [inhibitor, single point]",–
CCCCC(CC)C(=O)Nc1ncc([N+](=O)[O-])s1 (stereo not drawn),–,inactive: 2.53%
O=C(C1CCCCC1)N1CCC(n2nnc3ccccc32)CC1,active: 14.1 µM,–
O=c1cc(-c2ccc(O)cc2)oc2cc(O[C@H]3OC(CO)C(O)C(O)C3O)cc(O)c12 (stereo partly drawn),–,inactive: -0.838%
CCN(CC)c1ccc(/C=N/Nc2nc3ccccc3[nH]2)cc1,"inconclusive [inhibitor, partial curve]",–
CCNC(=O)NC(=O)CSc1ccccc1F,–,inactive: 9.65%
Cc1cc(NC(=O)C(C)C)ncc1NC(=O)CCc1ccccc1,–,inactive: 4.93%
CC(C)NC(=S)N/N=C/c1cccs1,"inconclusive [inhibitor, single point]",–
CCCCS(=O)(=O)Nc1ccc2c(c1)ncn2C1CCCCC1,"inconclusive [inhibitor, single point]",–
c1cc(C(c2nnnn2C2CCCCC2)N2CCN3CCCC3C2)ccn1 (stereo not drawn),–,inactive: -3.37%
CC(=O)OCCNc1cc(SC(C)C)c2nonc2c1[N+](=O)[O-],–,inactive: 3.46%
Cc1ccc2cc3c(nc2c1)N(c1ccccc1)CC3,"inconclusive [inhibitor, partial curve]",–
Cc1ccccc1CN(c1ccc(C(=O)Nc2ccccc2C(=O)NCc2ccco2)cc1)S(C)(=O)=O,"inconclusive [inhibitor, single point]",–
Cc1ccc(-c2nc3c(=O)n(-c4ccccc4)c4c(c(=O)n(C)c(=O)n4C)c3o2)cc1,"inconclusive [inhibitor, partial curve]",–
CCc1ccc(NC(=S)NC2CC3CCCC(C2)N3Cc2ccccc2)cc1 (stereo not drawn),"inconclusive [inhibitor, single point]",–
On1c(-c2ccco2)nc2c1CCc1nonc1-2,"inconclusive [inhibitor, single point]",–

Structure (SMILES),Potency,"activity, negative = inhibition"
O=C(Nc1ccc(Cl)c(Cl)c1)C1=Cc2ccccc2OC1,"inconclusive [inhibitor, partial curve]",–
CCOC(=O)C(N)CSC1CC(=O)N(c2ccc(C(=O)OC)cc2)C1=O (stereo not drawn),active: 7.08 µM,–
CCOC(=O)C1CCCN(C(=O)c2cc3c(-c4cccc(OC)c4)nn(C)c3s2)C1 (stereo not drawn),"inconclusive [inhibitor, single point]",–
Cc1cccc(C)c1NC(=S)N(CCN(C)C)C(C)c1cccnc1 (stereo not drawn),–,inactive: -5.91%
Cc1ccc(CNC(=O)c2oc3ccc(S(=O)(=O)N4CCC5(CC4)OCCO5)cc3c2C)cc1,"inconclusive [inhibitor, single point]",–
Cc1ccc(N2CCN(C(=O)c3ccccc3Br)CC2)c(C)c1,"inconclusive [inhibitor, partial curve, poor fit]",–
Cc1noc(C)c1COC(=O)c1ccc(N(C)C)cc1,"inconclusive [inhibitor, partial curve]",–
COc1ccc(N(C)C(=O)CCS(=O)(=O)c2cccc3nonc23)c(OC)c1,active: 12.6 µM,–
Cc1ccc(CC2C(=O)N(c3nc(C)cc(C)n3)C(=O)C2C)cc1 (stereo not drawn),–,inactive: 8.7%
COc1ccc(-c2nc(N)n(C(=O)c3ccco3)n2)cc1,"inconclusive [inhibitor, partial curve]",–
CCOc1ccccc1N1CCN(Cc2ccco2)CC1,"inconclusive [inhibitor, single point]",–
COc1ccc(F)cc1C(=O)C1CCCN(C(=O)C2=C(C)OCCO2)C1 (stereo not drawn),–,inactive: 5.3%
Cc1nc2ccccc2c2oc(C(=O)NCC3CCCO3)cc12 (stereo not drawn),active: 14.1 µM,–
Cc1cc(C(C)(C)C)oc1C(=O)N1CCN(C(=O)c2oc(C(C)(C)C)cc2C)CC1,"inconclusive [inhibitor, full curve]",–
Cc1[nH]c(=S)c(C#N)c(-c2ccco2)c1C(=O)N(C)C,active: 28.2 µM,–
Cc1ccc(C(=O)NCC(=O)OCC(=O)NC2CCCC(C)C2C)s1 (stereo not drawn),"inconclusive [inhibitor, single point]",–
CC[C@H]1C(c2cccc(C)c2)=NN(c2ccccc2)[C@@H]1CO,"inconclusive [inhibitor, partial curve]",–
O=C(OCCN1C(=O)c2ccccc2C1=O)c1cnccn1,–,inactive: 8.24%
CC1CCN(S(=O)(=O)c2ccc(NC(=O)CCN3C(=O)c4ccccc4C3=O)cc2)CC1,"inconclusive [inhibitor, single point]",–
CCCn1c(=O)[nH]c(=O)c2c(C(=O)OCC)cc(-c3cccs3)nc21,"inconclusive [inhibitor, partial curve]",–
Cc1c(/C=C/C(=O)c2ccc(Cl)s2)cnn1C,"inconclusive [inhibitor, single point]",–
CCN(CC)C(=O)CNC(=S)N(CCCN1CCOCC1)Cc1cccs1,–,inactive: -0.64%
O=C(NCCCN1CCOCC1)c1sc2ccccc2c1Cl,–,inactive: -20.9%
CCC(C)(C)n1nnnc1CN1CCC(NC(=O)c2ccc(Br)cc2)CC1,active: 5.01 µM,–
